From patent publication US7138486B2, “Insulinotropic hormone derivatives and uses thereof” (The General Hospital Corporation, priority 1986, dated 2006)
Not every detail of the peptide structures is certain; ends, links or a residue may be inferred.

Key:
RIN 1046-38 cells [1] = experiment: cAMP formation in insulinoma cell line; format: cell-based, rat; conditions: for cAMP: Exp. 3; for cAMP level: Table 2, 10 minutes
Protocol: Cells were grown as described in Example 1, in […] culture dishes. Varying amounts of glucagon-like peptides were added to culture wells in triplicate. […] Twenty microliters from each culture well was assayed.
Insulinotropic activity was monitored as described by Mojsov, S., et al., (J. Clin. Invest. 79:616–619 (1987)) and Drucker, D. J., et al., (Proc. Natl Acad. Sci. 84:3434–3438 (1987)), both of which references are incorporated by reference herein. […]

[2] = Stability of GLP-1(1-37) in culture medium (HPLC and radioimmunoassay); format: physicochemical; conditions: 24 hr; conditioned medium containing 0.1% bovine serum albumin; FIG. 5
RIN 1046-38 cells [3] = experiment: Levels of insulin, actin and angiotensinogen mRNAs by Northern blot densitometry; format: cell-based, rat; conditions: Experiment 1, peptide 5 × 10^−7 M
Protocol: Rat insulinoma cells of cell line RIN-38 were derived from a continuous islet cell line, RIN-r, which was established from a transplantable rat islet cell tumor (Gazdar, A. F., et al., Proc. Natl. Acad. Sci., USA 77:3519–3523 (1980)). The cells were maintained in DMEM (Gibco) at a glucose concentration of 4,500 mg/L and supplemented with 10% heat-inactivated fetal bovine serum (Gibco), 100 U/ml of penicillin and 100 μg/ml of streptomycin. Incubations were carried out at 37° C. in 95% air:5% CO2. Cells grown in the above manner were washed and resuspended in DMEM (Gibco) containing 0.1% bovine serum albumin and 25 mM glucose. […] Incubations were for six hours.
Messenger RNAs specific for insulin, actin, or angiotensinogen were identified by Northern hybridization as follows: cellular RNA was extracted from solid tumors and cells by homogenization in guanidine thiocyanate and sedimentation through a cesium chloride cushion. Poly A^+ RNA was isolated by oligo dT cellulose chromatography (Aviv, H., et al., Proc. Natl. Acad. Sci., USA 69:1408–1412 (1972)). Twenty micrograms of total RNA from each sample were fractionated by size on a 1.4% agarose gel after denaturation in glyoxal, followed by electrotransfer to a nylon membrane (Nytran; Schleicher and Schuell). Blotted membranes were baked for two hours at 80° C. under vacuum, prehybridized in 1M NaCl/1% SDS/10% Dextran sulfate at 50° C. overnight and hybridized at the same temperature for 24 h after addition of the labeled probes (3–5×10^5 cpm/ml); they were then washed at 55° C. twice in 1×SCC (0.15M NaCl/0.015 M Na citrate)/1% SDS), and exposed to X-ray film for varying times at −70° C. with an intensifying screen. The relative amounts of the specific mRNA were determined by microdensitometry.

rat pancreas = experiment: Pancreatic perfusion assay of insulinotropic activity (effluent insulin); format: in vivo

## CC[C@H](C)[C@H](NC(=O)[C@H](Cc1ccccc1)NC(=O)[C@H](CCC(=O)O)NC(=O)[C@H](CCCCN)NC(=O)[C@H](C)NC(=O)[C@H](C)NC(=O)[C@H](CCC(N)=O)NC(=O)CNC(=O)[C@H](CCC(=O)O)NC(=O)[C@H](CC(C)C)NC(=O)[C@H](Cc1ccc(O)cc1)NC(=O)[C@H](CO)NC(=O)[C@H](CO)NC(=O)[C@@H](NC(=O)[C@H](CC(=O)O)NC(=O)[C@H](CO)NC(=O)[C@@H](NC(=O)[C@H](Cc1ccccc1)NC(=O)[C@@H](NC(=O)CNC(=O)[C@H](CCC(=O)O)NC(=O)[C@H](C)NC(=O)[C@H](Cc1c[nH]cn1)NC(=O)[C@H](CCCNC(=N)N)NC(=O)[C@H](CCC(=O)O)NC(=O)[C@H](Cc1ccccc1)NC(=O)[C@H](CCC(=O)O)NC(=O)[C@H](CC(=O)O)NC(=O)[C@@H](N)Cc1c[nH]cn1)[C@@H](C)O)[C@@H](C)O)C(C)C)C(=O)N[C@@H](C)C(=O)N[C@@H](Cc1c[nH]c2ccccc12)C(=O)N[C@@H](CC(C)C)C(=O)N[C@H](C(=O)N[C@@H](CCCCN)C(=O)NCC(=O)N[C@@H](CCCNC(=N)N)C(=O)NCC(=O)O)C(C)C [GLP-1(1-37), reference compound]
RIN 1046-38 cells [1]; 0.5 μM
  Effect on cAMP levels: increased cAMP levels
RIN 1046-38 cells [1]; 5 × 10^−7 M
  cAMP: 69.9 ± 2.6 (c) fmol
RIN 1046-38 cells [1]; 5 × 10^−8 M
  cAMP: 30.8 ± 2.8 (NS) fmol
RIN 1046-38 cells [1]; 5 × 10^−9 M
  cAMP: 24.3 ± 1.9 (NS) fmol
RIN 1046-38 cells [1]; 5 × 10^−10 M, control 34.4 ± 5.2
  cAMP: 27.6 ± 4.6 (NS) fmol
RIN 1046-38 cells [1]; 10^−7 M
  cAMP level: 120
RIN 1046-38 cells [1]; 10^−8 M
  cAMP level: 160
RIN 1046-38 cells [1]; 10^−9 M
  cAMP level: 100
RIN 1046-38 cells [1]; 10^−10 M
  cAMP level: 90
RIN 1046-38 cells [1]; 10^−11 M
  cAMP level: 90
RIN 1046-38 cells [1]; peptide 10^−6 M, no-peptide value 140 (Expt. I), 91 (Expt II)
  cAMP level: 170
RIN 1046-38 cells [1]; at 5 nM and 50 pM
  Effects on the formation of cAMP: negligible
RIN 1046-38 cells [1]; even at 10^−11 M
  Stimulation of cAMP levels: neither GLP-1(1-37) nor GLP-2 (GLP-2) exhibited such activity
[2]
  Cleavage to GLP-1(7-37) on incubation: a small peak of GLP-1(7-37) appeared
RIN 1046-38 cells [3]; control 0.68 ± 0.03
  Actin mRNA level: 0.48 ± 0.06 Arbitrary densitometric units
RIN 1046-38 cells [3]; control 1.28 ± 0.18, mean ± SEM
  Insulin mRNA level: 1.87 ± 0.35 Arbitrary densitometric units
RIN 1046-38 cells [3]; control 2.67 ± 0.31
  Angiotensinogen mRNA level: 2.25 ± 0.20 Arbitrary densitometric units
Rat pancreas; 5×10^−7M
  Increase in effluent insulin concentrations: 3.4 fold
Rat pancreas; 5 × 10^−7 M, minute 0 (before peptide added)
  Insulin Produced: 1,400 picograms/ml
Rat pancreas; 5 × 10^−7 M, minute 1
  Insulin Produced: 4,700 picograms/ml
Rat pancreas; 5 × 10^−7 M, minute 2
  Insulin Produced: 2,900 picograms/ml
Rat pancreas; 5 × 10^−7 M, minute 3
  Insulin Produced: 2,200 picograms/ml
Rat pancreas; 5×10^−8M
  Increase in effluent insulin concentration: two-fold
Rat pancreas; 5 × 10^−8 M, minute 0 (before peptide added)
  Insulin Produced: 3,000 picograms/ml
Rat pancreas; 5 × 10^−8 M, minute 1
  Insulin Produced: 6,000 picograms/ml
Rat pancreas; 5 × 10^−8 M, minute 2
  Insulin Produced: 2,000 picograms/ml
Rat pancreas; 5 × 10^−8 M, minute 3
  Insulin Produced: 2,000 picograms/ml
Rat pancreas; 5×10^−10M
  Increase in serum insulin levels: 20%
Rat pancreas; 5 × 10^−10 M, minute 0 (before peptide added)
  Insulin Produced: 500 picograms/ml
Rat pancreas; 5 × 10^−10 M, minute 1
  Insulin Produced: 600 picograms/ml
Rat pancreas; 5 × 10^−10 M, minute 2
  Insulin Produced: 640 picograms/ml
Rat pancreas; 5 × 10^−10 M, minute 3
  Insulin Produced: 430 picograms/ml
Rat pancreas; 5×10^−11M
  Increase in insulin levels: without effect
Rat pancreas; 5 × 10^−11 M, minute 0 (before peptide added)
  Insulin Produced: 340 picograms/ml
Rat pancreas; 5 × 10^−11 M, minute 1
  Insulin Produced: 180 picograms/ml
Rat pancreas; 5 × 10^−11 M, minute 2
  Insulin Produced: 230 picograms/ml
Rat pancreas; 5 × 10^−11 M, minute 3
  Insulin Produced: 340 picograms/ml
Rat pancreas; 5 × 10^−12 M, minute 0 (before peptide added)
  Insulin Produced: 50 picograms/ml
Rat pancreas; 5 × 10^−12 M, minute 1
  Insulin Produced: 50 picograms/ml
Rat pancreas; 5 × 10^−12 M, minute 2
  Insulin Produced: 160 picograms/ml
Rat pancreas; 5 × 10^−12 M, minute 3
  Insulin Produced: 50 picograms/ml
Rat pancreas; 10^−11 M, five minute perfusions, FIG. 4
  Insulinotropic activity: inactive
Rat pancreas; even at concentrations as high as 5×10^−7M
  Insulin-releasing activity: no insulin-releasing activity
